PubChem BioAssay AID686978 (National Center for Advancing Translational Sciences (NCATS), 2013)
Values joined by “and” are separate entries in the source; they are usually repeats but may differ in a detail not shown here. Equal entries are not always repeated. The whole screen tested about 420,000 compounds, of which about 64,000 (15%) were called active. The shares of active, inactive and inconclusive entries below differ from those in the screen. Calls come from the whole dose curve; as a rule, active = well fitted inhibition curve with a large enough effect; inconclusive = small, poorly fitted or top-dose-only effect; inactive = flat fitted curve, though single readings scatter. No potency is given beside an inconclusive call; the fits are too rough.

experiment: qHTS for Inhibitors of human tyrosyl-DNA phosphodiesterase 1 (TDP1): qHTS in cells in absence of CPT; details: DT40 Tdp1-/- hTDP1 cells, no CPT, ATP luminescence, 48 h; series mostly up to 46.2 µM; note: nearly all actives have a fitted effect of over 55% in size
How it was run: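 Growth of hTDP1-complemented DT40 Tdp1-knockout cells is measured by ATP luminescence after at least 48 hr compound exposure at 37 °C, with DMSO substituting for the 20 nM CPT used in the parallel screen.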
Potency is the fitted concentration of half-maximal effect; tags give direction and shape of the fitted curve.

SMILES | Potency
O=C(c1ccc(F)cc1)N1CCN(S(=O)(=O)c2ccc(Br)cc2)CC1 | inconclusive [inhibitor, single point]
CCCCCCc1cc2cc(C(=O)Nc3ccccc3)c(=O)oc2cc1O | active: 3.66 µM
CCCn1c(SC(C)C(=O)NCC2CCCO2)nc2cc(Cl)ccc2c1=O (stereo unspecified) | inconclusive [inhibitor, partial curve]
CSc1ccccc1C(=O)OCC(=O)Nc1c(C)n(C)n(-c2ccccc2)c1=O | inactive
O=C(O)c1ccc(-c2ccc(/C=c3/sc4nc5ccccc5n4c3=O)o2)cc1Cl | inconclusive [inhibitor, partial curve]
COc1ccc(N2C(=O)CN(Cc3ccc(OC)c(OC)c3)C2=S)cc1 | inconclusive [inhibitor, single point]
CCOc1ccccc1OCCCC(=O)N(C)CC(=O)Nc1cc(C)ccc1C | inconclusive [inhibitor, partial curve, poor fit]
O=C(NNC(=S)Nc1ccc(Cl)c(Cl)c1)c1ccccn1 | active: 1.46 µM
Cc1ccc(NC(=O)C2CCN(C(=O)c3ccc(Cl)cc3)CC2)nc1 | inconclusive [inhibitor, single point]
NS(=O)(=O)c1ccc(NC(=O)c2cccc(N3C(=O)c4ccccc4C3=O)c2)cc1 | inactive
COc1cccc(CCNS(=O)(=O)CCNC(=O)c2cccc(OC)c2)c1 | inactive
O=C(NCCCN1CCOCC1)C(=O)NCC1OCCN1S(=O)(=O)c1ccc(Cl)cc1 (stereo unspecified) | inconclusive [inhibitor, single point]
CN(CC1CCN(CCc2cccc(C(F)(F)F)c2)CC1)C(=O)c1ccc(F)cc1F | inconclusive [inhibitor, single point]
COCCCn1c(-c2ccc(S(=O)(=O)N3CCOCC3)cc2)csc1=Nc1ccccc1 | active: 4.61 µM and active: 14.6 µM
CN(C)CCN1CCN(C2CN(Cc3cn(Cc4ccc(C(F)(F)F)cc4)nn3)S(=O)(=O)C2)CC1 (stereo unspecified) | inactive
CCC(=O)Nc1ccc(NC(=O)CN2CCCC(C)C2)c(Cl)c1 (stereo unspecified) | inconclusive [inhibitor, single point]

SMILES | Potency
CCOc1cc(C)ccc1OCc1nnc(SCC(=O)c2cccc([N+](=O)[O-])c2)n1C | inactive
COc1cc(/C=N/NC(=S)NCC2CCCO2)cc(OC)c1OC (stereo unspecified) | inconclusive [inhibitor, single point]
CCNC(=O)c1cc2c(=O)n3cccc(C)c3nc2n(Cc2ccc(C)cc2)c1=N | active: 16.4 µM
COc1ccc(-c2nc3cnc(N4CCN(C)CC4)nc3n(Cc3cccs3)c2=O)cc1 | inconclusive [inhibitor, single point]
CC1CC1C(=O)Nc1ccc(-c2ccccc2)cc1 (stereo unspecified) | inconclusive [inhibitor, single point]
CCN(CC)S(=O)(=O)c1ccc(Oc2ccc(S(=O)(=O)N(CC)CC)cc2)cc1 | active: 5.8 µM
COc1ccc(C2CC(c3ccco3)n3ncnc3N2)cc1 (stereo unspecified) | inconclusive [inhibitor, single point]
O=C(c1ccc(Cl)cc1)N1CCCCC(Sc2nnc(-c3ccc4c(c3)OCO4)o2)C1=O (stereo unspecified) | inactive
C=C(C)Cn1c(-c2ccc(OC)cc2)nc2ccccc21 | active: 14.6 µM
Cc1c(C=O)c2ccccn2c1C(=O)c1cccc([N+](=O)[O-])c1 | inconclusive [inhibitor, partial curve]
O=C(NCCCN1CCOCC1)c1cccc(NC(=O)c2ccccc2)c1 | inactive
Cc1ccccc1N(C(=O)CNC(=O)c1ccco1)C(C(=O)NC1CCCCC1)c1cccnc1 (stereo unspecified) | inactive
CCOC(=O)C1(C)CCN1C(=O)c1ccccc1OC(F)(F)F (stereo unspecified) | inactive
Cc1ccc(C=NNc2nc3c([nH]2)c(=O)n(C)c(=O)n3C)cc1 | inconclusive [inhibitor, partial curve]
Cc1cc(C)c[n+](CC(=O)c2cc3ccccc3oc2=O)c1 | inactive
